# Screen size: about 310,000 compounds; about 2,200 (0.71%) showed an effect of 50% or more. The effect is printed as a negative number. Some of the results follow.
# Target: human ether-à-go-go-related gene (hERG) potassium channel (human, UniProt Q12809)
# Assay: primary screen, population patch clamp on CHO cells stably expressing hERG
# Sequence of human ether-à-go-go-related gene (hERG) potassium channel (Q12809 whole entry, looked up): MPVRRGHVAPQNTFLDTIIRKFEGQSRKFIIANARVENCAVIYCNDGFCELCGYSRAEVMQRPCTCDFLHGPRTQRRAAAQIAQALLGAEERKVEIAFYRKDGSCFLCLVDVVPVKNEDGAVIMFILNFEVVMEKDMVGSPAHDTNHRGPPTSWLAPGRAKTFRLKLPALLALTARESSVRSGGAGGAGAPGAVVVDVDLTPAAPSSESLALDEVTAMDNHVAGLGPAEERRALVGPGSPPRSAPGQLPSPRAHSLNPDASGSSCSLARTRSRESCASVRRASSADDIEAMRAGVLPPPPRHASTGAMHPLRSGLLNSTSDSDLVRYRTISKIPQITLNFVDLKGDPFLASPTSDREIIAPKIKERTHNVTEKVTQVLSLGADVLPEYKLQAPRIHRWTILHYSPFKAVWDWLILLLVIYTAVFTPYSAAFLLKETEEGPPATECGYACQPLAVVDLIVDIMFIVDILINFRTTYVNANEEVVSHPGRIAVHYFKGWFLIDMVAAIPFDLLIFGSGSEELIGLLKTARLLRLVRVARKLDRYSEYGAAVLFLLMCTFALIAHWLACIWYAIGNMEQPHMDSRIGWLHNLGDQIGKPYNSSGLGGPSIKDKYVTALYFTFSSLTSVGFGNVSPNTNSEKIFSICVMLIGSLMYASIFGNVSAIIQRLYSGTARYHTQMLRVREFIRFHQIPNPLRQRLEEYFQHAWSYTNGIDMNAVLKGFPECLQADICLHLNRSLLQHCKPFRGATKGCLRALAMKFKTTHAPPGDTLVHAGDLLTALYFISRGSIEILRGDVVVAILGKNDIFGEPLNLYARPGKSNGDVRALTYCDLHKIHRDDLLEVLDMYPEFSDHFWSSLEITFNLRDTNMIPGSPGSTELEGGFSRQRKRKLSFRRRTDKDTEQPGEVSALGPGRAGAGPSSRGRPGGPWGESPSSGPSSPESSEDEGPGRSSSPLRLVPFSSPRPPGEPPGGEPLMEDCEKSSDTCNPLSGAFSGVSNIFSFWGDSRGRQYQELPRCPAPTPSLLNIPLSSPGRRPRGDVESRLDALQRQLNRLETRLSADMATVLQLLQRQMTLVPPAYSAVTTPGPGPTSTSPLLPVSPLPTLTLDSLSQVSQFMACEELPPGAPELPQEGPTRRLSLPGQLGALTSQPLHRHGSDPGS
row,SMILES,"hERG current change (%, negative = inhibition) at 1uM"
1,C/C(=N\NC(=O)c1cc(C2CC2)nc2ccccc12)c1ccc(C)s1,11.3%
2,CC(=O)N(Cc1ccco1)C1(C(=O)NC2CCCC2)CCCCC1,19.3%
3,O=C1CC(N2CCN(c3ccc(S(=O)(=O)N4CCOCC4)cc3)CC2)C(=O)N1Cc1ccccc1 (stereo not drawn),-1.33%
4,Cc1cccc(NC(=O)CNC(=O)c2ccc3nc[nH]c3c2)c1C,9.19%
5,CCOc1ccc(-c2nnc(SCC(=O)N3CCOCC3)o2)cc1,8.43%
6,CCOC(=O)C1CCN(C(=O)COc2ccc(Cl)cc2C)CC1,-5.2%
7,Cc1ccccc1S(=O)(=O)Cc1ccc(C(=O)NCCCN2CCN(C)CC2)o1,7.39%
8,COC(=O)c1cn(-c2ccccc2)nc1-c1ccncc1,5.43%
9,CCCn1nnnc1NC(=O)COc1ccc(Br)cc1,10.7%
10,O=C(N/C(=C/c1ccc(Br)cc1)C(=O)N1CCOCC1)c1ccc(Br)o1,-26.3%
11,CCc1cccc(OCC(=O)Nc2c[nH]c(=O)[nH]c2=O)c1,16.1%
12,CN/C(=C\[N+](=O)[O-])NCCSCc1csc(CN(C)C)n1,14.7%
13,Cc1cc(C)nc(NS(=O)(=O)c2ccc(N)cc2)n1,17.1%
14,O=C1NC(=O)N(Cc2ccc(F)cc2)C(=O)/C1=C\c1ccc([N+](=O)[O-])s1,14.9%
15,O=C1CCc2cc(S(=O)(=O)Nc3ccccc3)cc3c2N1CC3,5.11%
16,Cc1nn(CCC(=O)NCc2ccc(OC(C)C)cc2)c(=O)c2nn(-c3ccccc3)c(C)c12,4%
17,CCCCc1ccc(N2C(=O)[C@@H]3C(CC(N)=O)NC4(C(=O)Nc5ccc(F)cc54)[C@@H]3C2=O)cc1 (stereo partly drawn),-1.85%
18,Cc1ccc(S(=O)(=O)N2CCN(C(=O)CSc3nnnn3C)C2)cc1,5.15%
19,CCOC(=S)SCC(=O)N1CCc2cc(OC)ccc2C1C1C(=O)CCCC1=O (stereo not drawn),15.1%
20,COCCNC(=O)c1cc(S(=O)(=O)N2CCCCC2)ccc1N1CCOCC1,13.7%
21,CN(C)CC#CCCCCCCC#CCN(C)C,9.63%
22,Cc1ccc(NCc2nnc(SCC(=O)Nc3ncc(C)s3)n2Cc2ccco2)c(C)c1,11.8%

row,SMILES,"hERG current change (%, negative = inhibition) at 1uM"
1,CC(=O)c1ccc(OCCCC(=O)N2CCN(S(=O)(=O)c3cc(C)ccc3C)CC2)cc1,3.54%
2,O=C(CCN1C(=O)C2CCCCC2C1=O)Nc1cc([N+](=O)[O-])ccc1Cl (stereo not drawn),9.41%
3,Fc1ccc(-c2nnc(Cc3ccc(Cl)cc3)o2)cc1,2.18%
4,Cc1ccc(-n2c(C)cc(C(=O)Cn3nc(C(=O)O)c4ccccc4c3=O)c2C)cc1,17.1%
5,COc1ccc(OC)c(S(=O)(=O)N2CCCCC2C(=O)N2CCN(c3ccccn3)CC2)c1 (stereo not drawn),-18.2%
6,CCOC(=O)CC(=O)Nc1ccc(Br)cc1C(=O)O,-2.84%
7,O=C(CCn1nc(-c2ccc(Cl)cc2)ccc1=O)N1CCOCC1,2.56%
8,CCN(CC)P(=O)(Oc1cccc(C)c1)N(CC)CC,7.71%
9,Cc1ccccc1NS(=O)(=O)c1nnc(NC(=O)c2ccc(Cl)cc2)s1,4.38%
10,CCCCC(CC)CNC(=O)Cn1c(=S)[nH]c2ncccc2c1=O (stereo not drawn),9.91%
11,O=C(Nc1ccccc1Cl)Nc1ccnn1C1CCN(C(=O)c2cscn2)CC1,18.1%
12,C=C1c2cc(C)c(C)cc2NC(=O)N1c1ccccc1,19.5%
13,Cc1cc(S(=O)(=O)N2CCCCC2CCNC(=O)C(=O)NCc2cccnc2)ccc1F (stereo not drawn),7.01%
14,O=[N+]([O-])c1ccc(Oc2ccc(Oc3ccc(C(F)(F)F)cn3)cc2)nc1,13.5%
15,CCOCCCNC(=O)C(NC(=O)c1cnccn1)c1ccc(OC)cc1 (stereo not drawn),9.56%
16,N#Cc1cc2c(nc1SCc1cccc(Cl)c1)CCCCC2,9.9%
17,O=C(NC12CC3CC(CC(C3)C1)C2)c1cccnc1,-4.04%
18,COc1cccc(C2SCC(=O)N2c2ccc(C)cc2)c1OC (stereo not drawn),-1.11%
19,COc1ccc(C(=O)N/C(N)=N/c2nc3ccccc3o2)cc1,3.02%
20,COC(=O)c1c(NC(=O)c2ccnn2C)sc(C)c1C,4.23%
21,COc1ccc(-c2noc(CCCC(=O)Nc3ccc(C(N)=O)cc3)n2)cc1OC,4.34%
22,O=C(O)CCN(CCC(=O)O)c1ccccc1,4.84%

row,SMILES,"hERG current change (%, negative = inhibition) at 1uM"
1,C#CCOCCOCCOCCNc1nc(N2CCN(C(=O)CCCCCCCCCCNC(=O)[C@H](CO)n3cc(CCCSC)nn3)CC2)nc(N2CCN(C(=O)CCCCCCCCCCNC(=O)[C@@H]([C@H](C)O)n3cc(C)nn3)CC2)n1,12.9%
2,Cc1ccc2c(CN3CCCCC3CCO)cc(=O)oc2c1 (stereo not drawn),-2.35%
3,CC(NC(=O)Cc1cccc(C(F)(F)F)c1)c1ccc(F)cc1 (stereo not drawn),11.9%
4,Cc1ccc(S(=O)(=O)N2CCN(C(=O)c3ccccc3)C2C(C)C)cc1 (stereo not drawn),11%
5,Cc1nc(NNC(=O)c2ccc(Cl)cc2Cl)cc(-c2ccccc2)n1,3.93%
6,CCCCn1c(N)c(N(CCOC)C(=O)COC(=O)/C=C/c2ccc(Br)cc2)c(=O)[nH]c1=O,2.34%
7,COc1ccc(OC)c(CC(NC(C)=O)C(=O)NC2CCN(S(=O)(=O)c3ccc(NC(C)=O)cc3)CC2)c1 (stereo not drawn),-0.398%
8,CC(=O)c1cccc(NC(=O)c2ccc(S(=O)(=O)N3CC(C)OC(C)C3)cc2)c1 (stereo not drawn),13.7%
9,COCCNC(=S)N(C)C1(c2ccccc2Cl)CCCCC1=O (stereo not drawn),20.8%
10,Cn1c(-c2ccc(C(F)(F)F)cc2)cc2onc(-c3ccccc3)c2c1=O,9.26%
11,O=[N+]([O-])c1ccc(C2C3C(c4ccccc4)=NC4(CCCCC4)N32)cc1 (stereo not drawn),-0.742%
12,Cc1ccc(C)n1-n1cnc2sc3c(c2c1=O)CCC3,13.9%
13,CCc1nnc(NC(=O)c2ccc(S(=O)(=O)N(C)Cc3ccccc3)cc2)o1,5.74%
14,CCCC(=O)N(CCc1ccccc1)Cc1nc2ccccc2c(=O)[nH]1,4.21%
15,COc1ccc(CNC(=O)/C=C/c2ccc(OCCCF)cc2)cc1OC,3.81%
16,CC(/C=N/NC(=O)Cc1cccn1C)=C\c1ccccc1,-1.81%
17,Cn1nnnc1SCC(=O)Nc1ccc(Br)cc1Cl,4.24%
18,CCCCC(=O)Nc1ccc(NC(=O)c2cccs2)cn1,-0.0253%
19,COc1ccc(C(=O)N/C(=C\c2ccc([N+](=O)[O-])cc2)C(=O)NC(CCSC)C(=O)O)cc1 (stereo not drawn),11.8%
20,O=C(CSc1ccc(-c2ccccn2)nn1)c1ccc([N+](=O)[O-])cc1,11.3%
21,COc1ccc(OC)c(N2C(=O)CC(Cc3cc(C)cc(C)c3)C2=O)c1 (stereo not drawn),5.71%
22,CN(C)CCCN(C(=O)c1ccco1)c1nc2ccc(F)cc2s1.Cl,-37.4%

row,SMILES,"hERG current change (%, negative = inhibition) at 1uM"
1,CN(Cc1ccc(N(C)C)cc1)C(=O)c1cc2ccccc2o1,8.08%
2,Cc1ccc2nsnc2c1S(=O)(=O)NCCc1c(C)[nH]c2ccc(F)cc12,-1.76%
3,[O-]/C(=C(\C(=S)Nc1ccc(SC(F)F)cc1)[n+]1cccc(CO)c1)c1ccc(Cl)s1,7.35%
4,CCOCc1nnc(NC(=O)C2c3ccccc3Oc3ccccc32)s1,19.5%
5,CCOCC(=O)Nc1c(C(=O)Nc2ccc3c(c2)OCCO3)oc2ccccc12,7.78%
6,COc1ccc(N2CCN(C(=O)CCCC3=NS(=O)(=O)c4ccccc4N3)CC2)cc1,4.16%
7,CSC1=NCCN1C(=O)C(C)Oc1ccccc1 (stereo not drawn),19.4%
8,CCC(C)NC(=O)CSC1=Nc2ccccc2C2=NC(c3ccccc3)C(=O)N12 (stereo not drawn),-17.7%
9,COC(=O)c1c(-c2c(Cl)cccc2Cl)noc1NC(=O)N(C)C,23%
10,Cc1sc2nc(CN(Cc3ccccc3)C(=O)NC3CCCCC3)[nH]c(=O)c2c1C,6.82%
11,C=CCSc1nc2c(c(C3CC=CCC3)c1C#N)CCC2 (stereo not drawn),14.5%
12,Cc1csc(NC(=O)C2CCN(S(=O)(=O)c3cccs3)CC2)n1,-2.21%
13,COc1ccc(N(CC(=O)N2CCN(c3ccccc3F)CC2)S(=O)(=O)c2c(C)noc2C)cc1,15.3%
14,CC(C)N(Cc1ccccc1)C(=O)COc1ccccc1,7.8%
15,CCOC(=O)c1cnc(-n2[nH]c(C)c(Cc3ccccc3)c2=O)[nH]c1=O,5.51%
16,CCCNC(=O)Nc1cc(C)on1,15.3%
17,CCC(=O)Nc1nnc(Cc2ccccc2)s1,5.92%
18,COc1ccccc1-c1cc(-c2ccccc2)nc(SC(C(N)=O)c2ccccc2)c1C#N (stereo not drawn),17.2%
19,CCCC(=O)Nc1ccc(C(=O)O)cc1NC(=O)CCC,10.8%
20,COc1ccccc1OCCNC(=O)C(=O)c1c[nH]c2ccccc12,2.99%
21,COC(=O)C(CC(=O)c1ccc(C)cc1)n1cccn1 (stereo not drawn),9.45%
